Among all 390,000 compounds or so, about 930 (0.24%) were called active. This list was built around the results that the source calls inconclusive (neither active nor inactive); the mix of calls is not that of the screen. The call rests on the fitted dose curve; in most records, active means well fitted activation curve with a large enough effect; inconclusive means small, poorly fitted or top-dose-only effect; inactive means no such curve, though single readings can be large or run the other way. Potencies of inconclusive entries are doubtful fits and often do not repeat.
Assay: qHTS for Suppressors of FUS Proteinopathy: Primary screen using FUS-linked yeast assay; further: nearly all actives have a fitted effect of over 55% in size;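 on growth rescue (activation): plate controls were DMSO vehicle for no effect and reference control for full effect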
Conditions: S. cerevisiae FUS-expressing, OD600, 24 h; Potency: growth rescue; growth rescue (activation): at 76.6 µM (top of the series)
Outline: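 Quantitative HTS measuring growth restoration of FUS-toxic yeast. Galactose-induced cells (OD 0.005) were exposed 24hr at 30C to compounds at several concentrations, then absorbance at 600 nm was recorded.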
Potency means the concentration at half of the fitted maximal effect; tags describe the fitted curve by direction and shape.

| SMILES | Potency | growth rescue (activation) |
| --- | --- | --- |
| CCOC(=O)[C@]12CCC=C1N(CCC1=CCCCC1)C(=O)[C@H](CC(=O)NCCc1ccccc1OC)C2 | inactive | – |
| Cc1c(C)n(Cc2ccccc2)c2ccc(C(=O)NCc3ccc(OC(C)C)cc3)cc12 | inactive | – |
| CC(C)(C)NC(=O)CSCc1c(Cl)cccc1Cl | inconclusive: 11.2 µM [activator, single point] | – |
| COC(=O)Nc1ccc(S(=O)(=O)NC2CCCCC2)cc1 | inactive | – |
| O=C(COc1ccc(Br)cc1)N1CCC(c2ccccc2)C1 (configuration not stated) | inconclusive: 31.6 µM [activator, partial curve, poor fit] | – |
| CCN(CC)S(=O)(=O)c1ccc(N2CCCCC2)c(NC(=O)/C=C/c2cc(OC)c(OC)c(OC)c2)c1 | inconclusive: 28.2 µM [activator, partial curve, poor fit] | – |
| Cc1cc[n+](-c2nc3ccccc3nc2[N-]S(=O)(=O)c2cccs2)cc1C | inactive | – |
| O=C(NCc1ccc2[nH]c3c(c2c1)CCCC3)c1ccc(S(=O)(=O)N2CCCC2)cc1 | inconclusive: 25.1 µM [activator, single point] | – |
| Cc1ccc(S(=O)(=O)N2CCN(c3nc4ccccc4nc3-n3nc(C)cc3C)CC2)cc1 | inactive | – |
| CCCCCn1c(CCCNC(=O)c2cccc(C)c2)nc2ccccc21 | inconclusive: 35.5 µM [activator, single point] | – |
| COc1ccc(CCNc2ncnc3cc(OC)c(OC)cc23)cc1OC | inactive | – |
| CCc1ccc(CNCc2ccc(OCC(O)CN(C)Cc3ccccc3)cc2)nc1 (configuration not stated) | inactive | – |
| COc1ccc(C(=O)Oc2ccc(Br)cc2C(=S)N2CCOCC2)cc1 | inconclusive: 50.1 µM [activator, single point] | – |
| O=C(NCCc1ccccc1)OCc1cn(Cc2cccc(C(F)(F)F)c2)nn1 | inconclusive: 25.1 µM [activator, single point] | – |
| O=C(c1cc(C2CC2)nc2ccc(Br)cc12)N1N=C(C(F)F)CC1(O)C(F)F (configuration not stated) | inconclusive: 7.08 µM [activator, single point] | – |
| O=[N+]([O-])c1ccc(CN2CCN(c3ccc(Cl)cc3)CC2)o1 | inactive | – |
| O=C(NC(c1ccc(-c2ccccc2)cc1)c1cnccn1)C1CCN(CCOc2ccc(Cl)cc2Cl)CC1 (configuration not stated) | inconclusive: 31.6 µM [activator, partial curve] | – |
| CC(C)(C)c1ccc(C(=O)NN2C(=O)CSC2=S)cc1 | inconclusive: 14.1 µM [activator, partial curve, poor fit] | – |
| Cc1cccc(-c2nc3scc(CCNS(=O)(=O)c4ccc(F)cc4C)n3n2)c1 | inconclusive: 28.2 µM [activator, single point] | – |
| CCn1cc(/C=C(/C#N)S(=O)(=O)c2ccccc2)cn1 | inconclusive: 6.31 µM [activator, single point] | – |
| CCOc1ccc(CCNc2ncnc3onc(-c4ccc(Cl)cc4)c23)cc1 | inactive | – |

| SMILES | Potency | growth rescue (activation) |
| --- | --- | --- |
| Cc1oc(-c2ccc(Cl)cc2)nc1CN1CCC(C(=O)NCCCN2CCCC(C)C2)CC1 (configuration not stated) | inactive | – |
| COc1ccc(OC)c(CNC(=O)c2cc3ccc4cccnc4c3[nH]2)c1 | inconclusive: 50.1 µM [activator, single point] | – |
| Cc1nn2c(=O)cc(COC(=O)c3ccc(NC(=O)COc4ccc(Cl)cc4)cc3)nc2s1 | inconclusive: 35.5 µM [activator, single point] | – |
| O=c1c(Cl)c(N2CCC3(CC2)OCCO3)cnn1C12CC3CC(CC(C3)C1)C2 | inactive | – |
| CCCSc1ccc([C@@H]2[C@@H]3C(=O)N(C)C(=O)[C@@H]3[C@]3(C(=O)OC)CCCCN23)cc1OC | inconclusive: 22.4 µM [activator, single point] | – |
| COc1ccc(C(=O)NC(C(=O)N2CCN(c3ccccc3O)CC2)C(C)C)cc1 (configuration not stated) | inactive | – |
| Cc1ccc(S(=O)(=O)c2cnc(SCC(=O)Nc3ccc4c(c3)OCCO4)[nH]c2=O)cc1C | inconclusive: 14.1 µM [activator, partial curve, poor fit] | – |
| CCn1c(SCC(=O)Nc2ccc(C)cc2)nnc1-c1ccc(O)cc1 | – | inconclusive: 79.4% [activator] |
| CC(=O)c1ccc(NC(=O)C2CC2c2ccccc2)cc1 (configuration not stated) | inconclusive: 0.891 µM [activator, full curve, poor fit] | – |
| COC(=O)CN1C(C(=O)c2ccccc2)=C(OC(=O)c2ccc(F)cc2)c2ccccc2S1(=O)=O | inconclusive: 39.8 µM [activator, partial curve, poor fit] | – |
| Cc1cc(OCC(=O)N2CCC(c3nc4ccccc4s3)CC2)ccc1Cl | inconclusive: 50.1 µM [activator, single point] | – |
| O=C(CSc1ncc(-c2ccccc2)[nH]1)Nc1cccc(Br)c1 | inactive | – |
| COc1cc(-c2cc(NC=O)c3ncc(-c4ccccc4)n3c2)cc(OC)c1OC | inconclusive: 50.1 µM [activator, single point] | – |
| CCOCCc1nnc(NC(=O)C(=O)c2cc(C)n(-c3ccc(Cl)cc3)c2C)s1 | inconclusive: 15.8 µM [activator, partial curve, poor fit] | – |
| CCOC(=O)c1c(NC(=O)CSc2nnc(CNc3ccc(F)cc3)o2)sc(C(C)=O)c1C | inconclusive: 35.5 µM [activator, single point] | – |
| O=C(Nc1ccccc1C(=O)O)c1cccc(N2C(=O)c3ccccc3C2=O)c1 | inconclusive: 22.4 µM [activator, partial curve] | – |
| Cc1ccc(S(=O)(=O)N2CCC(C)CC2)c([N+](=O)[O-])c1 | inactive | – |
| CC(C)(C)OC(=O)N1CCCN(C(c2cc3ccccc3o2)c2nnnn2C(C)(C)C)CC1 (configuration not stated) | active: 15.8 µM | – |
| COc1ccc(Cl)cc1Nc1ccc2cc(S(=O)(=O)N3CCCCC3)ccc2n1 | inconclusive: 35.5 µM [activator, single point] | – |
| O=C(CSc1ccc(Cl)cc1Cl)N1CCC(c2nc3ccccc3s2)CC1 | inconclusive: 12.6 µM [activator, partial curve] | – |
| CC1=C(C(=O)N(C(C)C)C(C)C)CC(CC(=O)NCCCCc2ccccc2)C(=O)N1Cc1ccc(C(C)(C)C)cc1 (configuration not stated) | inconclusive: 12.6 µM [activator, partial curve, poor fit] | – |

Reference: PubChem BioAssay AID1347120 (National Center for Advancing Translational Sciences (NCATS), 2019)
